B1: CPEB3 Ribozyme (parent)
chain: UAACAGGGGGCCACAGCAGAAGCGUUCACGUCGCAGCCCCUGUCAGAUUCUGGUGAAUCUGCGAAUUCUGCUGUAUAUCUC

The source gives no read counts; variants with many changes may rest on few reads.

In the data set the parent is B1. Description: self-cleavage, relative activity (ratio to wild type); higher = more cleavage; in vitro, sequencing. An outline of the steps:
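Relative activity compares each variant's cleaved/total read fraction with that of the unmutated ribozyme. To get these fractions, barcoded CPEB3 ribozyme libraries from rounds of error-prone PCR were transcribed with T7 RNA polymerase for 5 hours at 37°C and then given 15 min of DNase I treatment before EDTA was added. The RNAs were reverse transcribed with template switching and sequenced on Illumina, and DNA sequencing linked barcodes to variants. A minimum of 5 reads applied, and three batches were averaged.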
A3U U67C U69C U74C U80C: the self-cleavage was found to be 0.3. With A5G A20G U43C U54A U67C, the self-cleavage came out at 0.31.

Regarding A5G A15G A35U C62U U78C, the self-cleavage turned out to be 0.1. In the case of A5C A15U A20U C29G C38A it was 0.27. With C4U A15U U31A U41A A64G U69C, the self-cleavage was 0.24. Regarding C4U A28G U43C U58A U78C, the self-cleavage came to 0.22.

With A5C G19U A56U A64U U69A A77G C79U, the self-cleavage amounted to 0.07. As to C4U U58C A64G U76A, the self-cleavage worked out at 0.67. Next, C4U A13U U31A U51C: 1.08; C4U A45U U49C U69C: 0.08. In the case of A5C A18U U54C U72C it was 0.24; in that of A3U U60C U67C, 0.28. Next, A3U U25A A28G: 0.12; A3U U60A U72A U80C: 0.75; C4A A13U U58C A64G A77G: 0.91. In the case of A5C U67C U72C U76C A77G, the self-cleavage worked out at 0.17. On to C4U A20G C27U, for which the self-cleavage was 0.6. In the case of A3U C11A U69C it was 0.5; in that of C4U U58C U74A, 1.14; in that of C4U G24C U49G U76C, 0.19. Turning to A5G A20C C32G A35G U41G U72A U74C, the self-cleavage stood at 0.17. In the case of C4U G9A U41C A64U it was 0.16.

Turning to A5G A21G U41C A45G U67C U80C, the self-cleavage was determined as 0.02. With A5G A13G U25C A35U C71G U72C, the self-cleavage was found to be 0.08. In the case of A5G A21G A45U U48C it was 0.07. As for A5C C12A U25A U51A U69G U72C, the self-cleavage is 0.04. As to A3U U31C U41C U51A, the self-cleavage worked out at 0.9. In the case of A5G A21G C37U U58C it was 0.52; in that of A5G A13U A18U A28U A35G G70A U72C, 0.13.

As for A3U G8U A13U A18G U72C, the self-cleavage worked out at 0.1. As for A3U C11U G61C U66C U80A, the self-cleavage amounted to 0.15. In the case of C4G U54A A77G it was 1.18. Consider A3U U26C A28U U54C, for which the self-cleavage worked out at 0.48. C4U A5U A21G U26A G70A: the self-cleavage is 0.33.

Turning to A3U G70A A75G, the self-cleavage is 0.29. For the variant C4A U26A U51A U54A, the self-cleavage was determined as 1.16. In the case of A5C A13U G24C U26C C39U it was 0.24; in that of A5G A18C U48C U51C U67C, 0.21; in that of A5G A15U G30C A35U, 0.32.

On to A5G A18G C38U C39G U51C U58A, for which the self-cleavage stood at 0.02. Turning to A5G A21G C40U A57G U60C A64G, the self-cleavage is 0.29. Regarding A5G A21G A64G C79A, the self-cleavage was 0.47. In the case of A3U G42A U67C U72C A75G U78G it was 0.13; in that of A5G A15G A57G U66C, 0.11; in that of A5C G36U A45G A47G, 0.22. In the case of A5G A13U G19A U25C G52A U72C it was 0.13; in that of A5G A13G A45G U51A, 0.49. Next, A5G A21G U43A U69G A75U: 0.08; A5G A13G U26C A28G C59G U80A: 0.31. C4A U31C U41C U48C A56U A64G U74C: the self-cleavage was found to be 0.12. In the case of A5C G33A A47U A57U G73A U74C it was 0.08; in that of A5G A13G U76A, 0.5; in that of C4U A35G A56U U66C, 1.02. Consider A5G A20G U41C U74A, for which the self-cleavage came out at 0.39. Next, A5G A21G U26C A56U: 0.28. Next, A5G A15G A28G A47U: 0.33; A3U U25C C79U: 0.56; A5C A15G A45U U74C: 0.7. In the case of A5G A13U U25C U51A U66C it was 0.18; in that of A5G A13G A56U, 0.27; in that of A5C A18G U26C U60A, 0.12.

As for A5G A13C U60C U66C, the self-cleavage is 0.25. A3U G8U A18U C39U U41C A75G U78C: the self-cleavage was 0.04. In the case of C4A C32A A45G it was 0.6. In the case of C4A A28G U49C A56G it was 1.01. Next, A3U G7A A65U U78C: 0.14. Regarding A3U G30C U41C U60C A64U G73U, the self-cleavage was 0.17. Next, A5G A13U A15G U25A A45G U58C: 0.14; C4G A21G U26C U72A: 0.23. In the case of A5C U48C U51A A57G U60C U80C it was 0.32. Next, A5G A15G U26C U67C U72C U76A U80A: 0.04. Turning to A5G A21G U48C A57U A77G, the self-cleavage worked out at 0.24. In the case of A3U C29U U72C it was 0.76. As to A5C G8A U51C, the self-cleavage was 0.47. Consider A5G A13U A21U U60C, for which the self-cleavage amounted to 0.09.

For C4U A5C A20U A21U A28G A77U, the self-cleavage was determined as 0.16. Next, C4U A18G U67C: 0.34. With A5C A28G U72C, the self-cleavage came to 0.27. In the case of C4G A21G U60C U66G C68G it was 0.19; in that of A5C U54C U60A U80A, 0.35. For the variant A5G A15U U49C U67A, the self-cleavage was found to be 0.07.

For the variant A5G A15U A35G U78C, the self-cleavage was determined as 1.12. In the case of A5C A13G A15U A47G U60C A64G U76G it was 0.32. As to A5G A15G A28G U80A, the self-cleavage was found to be 0.93. With A3U U25C A28G A64G, the self-cleavage was 0.65.

Regarding C4U G22A U26C, the self-cleavage was 0.46. Next, C4A U25C U66C: 0.66; C4G A21G G24A C27A U31A U67A U72C: 0.06. For A5G A13G U26A A28G A35U, the self-cleavage stood at 0.06.

Consider A3U G6U U31C A35U U54C G73A, for which the self-cleavage came out at 0.41. A5G A15G G30A U76C: the self-cleavage amounted to 0.13.

For C4A A15G A45G U54G U69C, the self-cleavage amounted to 0.18. In the case of C4A C14G A18G A20U G24A A77G it was 0.1. As for A5G A18G A21G U26C U67A U78C, the self-cleavage amounted to 0.51. Next, C4U C38U G61A: 0.47; A3U U25C G30C U41C U58A U60C: 0.17. In the case of A5G A28G U31C U41A, the self-cleavage is 0.09. As to A5C U60A U69A U80A, the self-cleavage is 0.37.

With C4U A18G U60A, the self-cleavage was 0.74. On to A3U U25G A35G, for which the self-cleavage turned out to be 0.7.

For C4U U41C A47G U48C U67C, the self-cleavage was determined as 0.12. In the case of A5G A15U U60C G63A U72A A75G it was 0.21; in that of A5G A18G U54A A56G U58C, 0.11. On to A5G A20U U26C G30A, for which the self-cleavage came to 0.4. In the case of A3U C29U U43C it was 0.23. In the case of C4U A21G U41C U43G it was 0.1; in that of A3U G8C U26C A64U U72C, 0.07.

For the variant C4A G6A C11A A47U, the self-cleavage amounted to 0.57. In the case of A5G A15G U66A U74C A75G it was 0.29. As to A5G A18U A35G A64C G73U, the self-cleavage is 0.29. In the case of C4U A15G C17U C40G A45G, the self-cleavage turned out to be 0.33. Next, A3U U51A A65G: 0.69; A5G A20G U31A A35U A65C: 0.25. A5C A15G A47U U67G: the self-cleavage was 0.2. On to A5C U25A U26A U48A A65G, for which the self-cleavage amounted to 0.07.

As to A5G A18G A20G G36U U43C U76C, the self-cleavage worked out at 0.28. Regarding A5G A20G C32U U66C, the self-cleavage worked out at 0.13.

For the variant A3U U72C U80A, the self-cleavage amounted to 1.26. On to A5G A13U U51A U67A U72A U74C, for which the self-cleavage was found to be 0.26.

In the case of C4U A13G U48G U72C, the self-cleavage turned out to be 0.54.

In the case of A5G A20G U43C, the self-cleavage is 0.11. With A5C A18G C29U A56G, the self-cleavage was determined as 0.09.

With A3U G8A A64G U69C, the self-cleavage stood at 0.21. Consider A5G A13C A77C, for which the self-cleavage was 0.86. Next, A5G A20G U43C U48C: 0.13; A5G A15G A56G A75U: 0.39; A5C A15C U60C: 0.62. Turning to A3U U25A A35U A56U C62U, the self-cleavage came to 0.17. In the case of A5C U31C U54A U74C it was 1.15; in that of C4U C17U U69C, 0.3. Next, A5G A18G U69C: 0.83. Next, A5C A21G U31C C39U U43C A65G U78C: 0.04; A5G A15C A21U U41C U60A: 0.89.

In the case of A5G A20U U25C U31A U49G C81U, the self-cleavage is 0.08. Next, A5C U25C U54C: 0.29.

Regarding A5G A15G U25A U54C U67G, the self-cleavage was determined as 0.31. Next, A5C G36A U43C G55C A57G: 0.11; A3U C11G U51C: 0.69; C4U U25C U58C A64G: 0.15. A5G A18G A21U A64U: the self-cleavage worked out at 0.1. In the case of A5C A28U U72C, the self-cleavage stood at 1.08. In the case of A5G A18U U25C U41C U43C U67C U72C it was 0.

Turning to A5G A21G U26C C34A C39U G52A A77G, the self-cleavage amounted to 0.27. In the case of A3U U25C U43C it was 0.4; in that of A5G A20G U41A A56G C62A, 0.07. For A5C G9U A56U, the self-cleavage was determined as 0.29. As to C4G C27A G30A U31G, the self-cleavage was 0.23. Next, A5G A13G A35U U41G A56U U72A: 0.16; A5G A18G U76A: 0.34.

In the case of A5G A15U A20G U41G, the self-cleavage worked out at 0.09. Regarding A5G A20G U48C A64U U76C, the self-cleavage was 0.12. For the variant A3U U41C A45G A77G, the self-cleavage came to 1.02.

On to A5G A28G U43C A45G U72C, for which the self-cleavage amounted to 0.67. A5G A20U U49C U60C: the self-cleavage worked out at 0.22. Next, A5C A15G A20G A35U G61A U78C: 0.04; C4U U25C U67A: 0.12; A5C A15U A21G U31C G33A U43C A65G: 0.04.

C4U A20U U25C: the self-cleavage amounted to 0.41.

Turning to A3U G30C C38A U54A, the self-cleavage is 0.28.

For A5C A18G C37G U48C, the self-cleavage stood at 0.08. Next, A5G A15U C23U A35G U60C U67C: 0.24. Next, A5G A20G U26A: 0.42; C4A U58C U80A: 0.93; A5C G6A A28G U41C A64G U69A U76C: 0.05. Next, C4U C12U C14U A18U U26C: 0.44; A5G A13G U25A U66A: 0.08. Consider C4U A45C A64G, for which the self-cleavage stood at 0.72.

These data come from the RNAGym collection of RNA variant scans (doi:10.1093/nar/gkz1192).
